Experimental data: the supplement of paper PMC9446081
The whole screen tested about 39,000 compounds, of which about 220 (0.56%) showed activity. Some of the results follow.

The molecules below were run on Escherichia coli K-12 BW25113 (assay: relative growth (OD600 normalised to plate interquartile mean) (fraction); higher = less growth inhibition, active = 0.2 or less). Settings: 50 µM; LB; incubation time: overnight (16-24 h).
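Also: static incubation at 37 °C against the wild-type strain, values averaged over two biological replicates.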

SMILES | relative growth
C[C@@H]1CN([C@H](C)CO)S(=O)(=O)c2ccc(C#CC3CC3)cc2O[C@@H]1CN(C)C(=O)c1cccc(F)c1 | inactive: 1.02
C[C@@H]1CCCCO[C@H](CN(C)CC2CC2)[C@H](C)CN([C@@H](C)CO)C(=O)c2cc(NC(=O)c3ccccc3)ccc2O1 | inactive: 0.935
CC(=N)NCCCC[C@@H](N)C(=O)O | inactive: 0.98
O=C(C[C@H]1C[C@H]2c3cc(NC(=O)c4ccc5c(c4)OCO5)ccc3O[C@H]2[C@@H](CO)O1)NCc1cccnc1 | inactive: 1.02
C[C@@H]1CN([C@@H](C)CO)C(=O)c2cc(NC(=O)CCC(F)(F)F)ccc2O[C@H]1CN(C)Cc1ccc(C(=O)Nc2ccccc2N)cc1 | inactive: 0.976
CC(=O)OC[C@@H]1O[C@H](O[C@@H]2CC[C@]34C[C@]35CC[C@]3(C)[C@@H]([C@@H](C)[C@H]6C[C@@H](O)C(C)(C)O6)CC[C@@]3(C)[C@H]5CC[C@H]4[C@H]2C)[C@@H](O)[C@H](O)[C@@H]1O[C@H]1O[C@@H](CO)[C@@H](O[C@H]2O[C@@H](CO)[C@@H](O)[C@@H](O)[C@@H]2O)[C@@H](O[C@H]2O[C@@H](C)[C@@H](O)[C@@H](O)[C@@H]2O)[C@@H]1O | inactive: 0.993
COc1ccc(NC(=O)Nc2ccc3c(c2)C(=O)N([C@H](C)CO)C[C@@H](C)[C@@H](CN(C)C(=O)Nc2ccc4c(c2)OCO4)OCCCC[C@@H](C)O3)cc1 | inactive: 1.03
CCOC(N)=O | inactive: 1.08
COc1ccc(S(=O)(=O)Nc2ccc3c(c2)C(=O)N([C@@H](C)CO)C[C@H](C)[C@@H](CN(C)Cc2ccc(Oc4ccccc4)cc2)O3)cc1 | inactive: 0.978
COc1ccc(S(=O)(=O)Nc2ccc3c(c2)CC(=O)N([C@H](C)CO)C[C@@H](C)[C@@H](CN(C)C(=O)NC(C)C)O3)cc1 | inactive: 1.03
Cc1cccc(C(=O)N2CCC[C@@H](Cn3cc(C(C)(C)N)nn3)C2)c1C | inactive: 1.01
C[C@@H]1CN([C@@H](C)CO)C(=O)c2cccc(NC(=O)CCCCCC(=O)Nc3ccccc3N)c2O[C@H]1CN(C)CC1CCCCC1 | inactive: 1
CN(C)C(=O)C1CCN(S(C)(=O)=O)CC1 | inactive: 1
CCCCCC=CCCC(=O)NC1C(Oc2c3cc4cc2Oc2ccc(cc2Cl)C(OC2OC(CO)C(O)C(O)C2NC(C)=O)C2NC(=O)C(NC(=O)C4NC(=O)C4NC(=O)C(Cc5ccc(c(Cl)c5)O3)NC(=O)C(N)c3ccc(O)c(c3)Oc3cc(O)cc4c3)c3ccc(O)c(c3)-c3c(OC4OC(CO)C(O)C(O)C4O)cc(O)cc3C(C(=O)O)NC2=O)OC(CO)C(O)C1O (stereo unspecified) [TEICOPLANIN [A(2-1) shown]] | inactive: 1.05
COc1ccc(NC(=O)N(C)C[C@@H]2Oc3ccc(NC(=O)CCN4CCOCC4)cc3C(=O)N([C@H](C)CO)C[C@@H]2C)cc1 | inactive: 0.982
N#CCc1ccc(Cl)cc1F | inactive: 0.992
Brc1ccc(-c2ccc(Br)s2)s1 | inactive: 1.04
C[C@@H]1CN([C@H](C)CO)C(=O)c2cc(NS(C)(=O)=O)ccc2O[C@H]1CN(C)C(=O)Nc1ccc(C(F)(F)F)cc1 | inactive: 0.832
CN1CCN(C(=O)C[C@H]2C=C[C@@H](NS(=O)(=O)c3cccc(F)c3)[C@@H](CO)O2)CC1 | inactive: 1.02
COc1ccc(NC(=O)Nc2ccc3c(c2)C(=O)N([C@H](C)CO)C[C@@H](C)[C@H](CN(C)Cc2ccc(Cl)c(Cl)c2)OCCCC[C@@H](C)O3)cc1 | inactive: 1.02
C[C@H](CO)N1C[C@H](C)[C@H](CN(C)C(=O)CCC(F)(F)F)OCCCC[C@H](C)Oc2ccc(NS(=O)(=O)c3cccs3)cc2C1=O | inactive: 1.02

SMILES | relative growth
C[C@@H]1CCCCO[C@@H](CN(C)C(=O)CCC(F)(F)F)[C@@H](C)CN([C@@H](C)CO)C(=O)c2cc(NC(=O)NC3CCCCC3)ccc2O1 | inactive: 0.994
C[C@H](CO)N1C[C@H](C)[C@H](CN(C)Cc2ccc(-c3ccccc3)cc2)Oc2ccc(NS(=O)(=O)c3ccc(F)cc3)cc2C1=O | inactive: 0.921
COCC(=O)N(C)C[C@H]1Oc2cc(C#CCC3CCCC3)ccc2S(=O)(=O)N([C@H](C)CO)C[C@@H]1C | inactive: 0.991
C[C@@H]1CCCn2cc(nn2)COCCNC1=O | inactive: 1
C[C@@H]1CN([C@@H](C)CO)C(=O)c2cccc(NC(=O)Nc3ccccc3)c2O[C@@H]1CN(C)C(=O)Nc1cccc2ccccc12 | inactive: 1
COc1cc(Cc2cc3c(c(CCc4ccccc4)n2)[Si](C(C)C)(C(C)C)OC3)cc(OC)c1OC | inactive: 1.03
OCC1(CO)COC(COc2ccccc2)=N1 | inactive: 1.03
CC(C)NC(=O)N(C)C[C@@H]1Oc2ccc(NC(=O)CCCN(C)C)cc2C(=O)N([C@@H](C)CO)C[C@@H]1C | inactive: 0.993
C[C@@H]1CN([C@H](C)CO)C(=O)Cc2cc(NS(=O)(=O)c3cn(C)cn3)ccc2O[C@H]1CN(C)Cc1ccccc1 | inactive: 0.995
O=C(NCO)c1cccnc1 | inactive: 0.97
CC(C)CC#Cc1cnc2c(c1)C(=O)N([C@H](C)CO)C[C@@H](C)[C@H](CN(C)C(=O)CN1CCOCC1)O2 | inactive: 1.02
C[C@@H]1CCCCO[C@@H](CN(C)Cc2ccc3c(c2)OCO3)[C@@H](C)CN([C@@H](C)CO)C(=O)c2cc(NC(=O)Nc3ccc(F)cc3)ccc2O1 | inactive: 0.958
COc1cccc(S(=O)(=O)N(C)C[C@H]2Oc3ncc(C#CCN(C)C)cc3C(=O)N([C@@H](C)CO)C[C@H]2C)c1 | inactive: 1.02
C[C@@H]1CN([C@H](C)CO)C(=O)Cc2cc(NC(=O)Cc3cn(C)c4ccccc34)ccc2O[C@@H]1CN(C)Cc1ccc(Cl)c(Cl)c1 | inactive: 1.03
C[C@H]1CN([C@@H](C)CO)C(=O)Cc2cc(NC(=O)Cn3cnnn3)ccc2O[C@H]1CN(C)C(=O)Nc1cccc2ccccc12 | inactive: 0.994
CS(=O)(=O)c1ccc(S(C)(=O)=O)s1 | inactive: 0.903
COc1ccc(NC(=O)Nc2ccc3c(c2)C(=O)N([C@H](C)CO)C[C@H](C)[C@H](CN(C)S(=O)(=O)c2ccc(Cl)cc2)OCCCC[C@@H](C)O3)cc1 | inactive: 1.01
CC(C)NC(=O)N(C)C[C@H]1Oc2c(NS(=O)(=O)c3cn(C)cn3)cccc2C(=O)N([C@@H](C)CO)C[C@@H]1C | inactive: 0.988
C[C@H]1CN([C@@H](C)CO)C(=O)c2cc(NS(=O)(=O)c3ccccc3)ccc2O[C@H]1CN(C)Cc1ccc(Cl)c(Cl)c1 | inactive: 1
CN1C(=O)c2cc(NC(=O)c3cnccn3)ccc2OC[C@@H]2O[C@@H](CC(=O)N[C@@H]3CCN(Cc4ccccc4)C3)CC[C@H]21 | inactive: 1.02
COc1ccc(NC(=O)N(C)C[C@@H]2OCCCC[C@@H](C)Oc3ccc(NC(=O)Nc4cccc5ccccc45)cc3C(=O)N([C@H](C)CO)C[C@@H]2C)cc1 | inactive: 1.04

SMILES | relative growth
O=C(C[C@@H]1CC=CCCC(=O)OC[C@@H](Cc2c[nH]c3ccccc23)NC1=O)N[C@H](CO)Cc1ccccc1 | inactive: 1
CN1CCN(C(=O)C[C@@H]2C=C[C@H](NS(=O)(=O)c3cccc(F)c3)[C@@H](CO)O2)CC1 | inactive: 1
OCC1OC(OC2C(O)C(CO)OC2(CO)OC2OC(CO)C(O)C(O)C2O)C(O)C(O)C1O (stereo unspecified) | inactive: 1.08
COc1ccccc1C#Cc1cnc2c(c1)C(=O)N([C@@H](C)CO)C[C@H](C)[C@H](CN(C)S(=O)(=O)c1cn(C)cn1)O2 | inactive: 1.01
C[C@@H]1CCCCO[C@@H](CN(C)C(=O)Cc2ccccc2)[C@H](C)CN([C@H](C)CO)C(=O)c2cc(NC(=O)Nc3ccccc3)ccc2O1 | inactive: 0.986
C[C@H](O)C#Cc1cnc2c(c1)C(=O)N([C@H](C)CO)C[C@H](C)[C@@H](CN(C)Cc1cncnc1)O2 | inactive: 1
CN1C(=O)c2cc(NC(=O)c3ccc(C(F)(F)F)cc3)ccc2OC[C@H]2O[C@H](CC(=O)NC3Cc4ccccc4C3)CC[C@H]21 | inactive: 0.995
C[C@H]1CCCCO[C@@H](CN(C)CC2CC2)[C@@H](C)CN([C@@H](C)CO)C(=O)c2cc(NC(=O)Nc3ccc(F)cc3)ccc2O1 | inactive: 0.952
C[C@@H]1CN([C@H](C)CO)S(=O)(=O)c2ccc(-c3ccncc3)cc2O[C@H]1CN(C)C(=O)c1ccc2c(c1)OCO2 | inactive: 1
CC(=O)N1[C@@H]2c3cccc(=O)n3C[C@H]1[C@H](CO)[C@H]2C(=O)N1CCc2ccccc2C1 | inactive: 1.02
C[C@@H]1CN([C@H](C)CO)C(=O)CCCn2nncc2CO[C@@H]1CN(C)Cc1cccc2c1OCCCO2 | inactive: 1
CC(C)CC#Cc1ccc2c(c1)O[C@H](CN(C)C(=O)NC1CCCC1)[C@H](C)CN([C@@H](C)CO)S2(=O)=O | inactive: 0.997
O=C1c2cccc(O)c2C(=O)c2c(O)cccc21 | inactive: 0.979
C[C@@H]1CN([C@H](C)CO)C(=O)c2cc(NC(=O)CCN3CCOCC3)ccc2O[C@@H]1CN(C)S(C)(=O)=O | inactive: 1.01
CCCNC(=O)N(C)C[C@H]1Oc2ncc(-c3ccc(C(=O)N(C)C)cc3)cc2C(=O)N([C@@H](C)CO)C[C@H]1C | inactive: 1.03
NCc1nccs1 | inactive: 0.957
Nc1ccc(Cl)nn1 | inactive: 0.999
CC[n+]1oc(-c2ccccc2)cc1C | inactive: 1.02
Cc1noc(C)c1S(=O)(=O)Nc1cccc2c1O[C@@H](CN(C)Cc1ccc(-c3ccccc3)cc1)[C@@H](C)CN([C@@H](C)CO)C2=O | inactive: 1.05
